In PubChem BioAssay (NCI):
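Method: 48-hour compound exposure of cells in 96-well plates, five concentrations, linear interpolation of endpoints. Definition used: TGI = concentration required for complete inhibition of growth.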

Tested on: NCI-H322M lung
Assay: DTP human tumour cell line panel, 48 h

| Structure (SMILES) | TGI |
| --- | --- |
| O=C(NCCO)c1cc2c(cn1)[nH]c1ccccc12 | > 100 µM |
| CCSC1=N/C(=C\c2ccco2)C(NN)=N1 | > 50 µM |
| Cc1ccccc1[P+](C)(c1ccccc1C)c1ccccc1C | 48.5 µM |
| Cc1nnc2sc(Cl)nn12 | 11.1 µM |
| O=C(Nc1cccc(NC(=O)C(=O)C2CCC3=C(Sc4ccccc4N3)C2=O)n1)C(=O)C1CCC2=C(Sc3ccccc3N2)C1=O (stereo unspecified) | > 100 µM |
| C=C(C)CNC(=S)N(N)c1ccc(OC)cc1 | > 100 µM |
| Cc1n[n+](CC(=O)c2ccccc2)c2sc(N)nn12 | > 100 µM |
| COC(=O)C(Cc1ccccc1)NC(=O)C(CCC(=O)OCc1ccccc1)NC(=O)OC(C)(C)C (stereo unspecified) | > 100 µM |
| CN(C)CCCNC(=O)c1cc(NC(=O)c2cc(NS(=O)(=O)c3ccc4c(c3)C(=O)c3ccccc3C4=O)cn2C)cn1C | > 100 µM |
| CCOC(=O)N1CC2(C)C=CC1C(C(=O)OC)C2 (stereo unspecified) | > 100 µM |
| NC(=O)c1ccc(NS(=O)(=O)c2ccc(N)cc2)nc1 | > 100 µM |
| Nc1ccc(Oc2ccc(C3(c4ccc(Oc5ccc(N)cc5)cc4)C4CC5C6CC7CC5C3C(C7)C6C4)cc2)cc1 | > 100 µM |
| O=c1[nH]c(=O)n(C2OC(CO)C(O)C2O)c2ncc(-c3ccc(-c4ccccc4)cc3)nc12 (stereo unspecified) | > 20 µM |
| CCCCCCCCCCCCCCCCOCC(CN(C)CCN(C)C)OCCCCCCCCCCCCCCCC (stereo unspecified) | > 100 µM |
| N#CC1(C#N)NC(c2cccnc2)C(C#N)(C#N)NC1c1cccnc1 (stereo unspecified) | > 100 µM |
| COc1ccc(N=Nc2c(C)c(C#N)c(=S)n(C3OC(COC(C)=O)C(OC(C)=O)C(OC(C)=O)C3OC(C)=O)c2C)cc1 (stereo unspecified) | > 100 µM |
